# Assay results taken from PubChem BioAssay AID504832 (National Center for Advancing Translational Sciences (NCATS), 2011).
# Out of some 310,000 compounds screened, about 18,000 (5.8%) were called active. The inconclusive results got no clear call from the source; some entries with a clear call stand among them for comparison. The call rests on the fitted dose curve; in most records, active means well fitted inhibition curve with a large enough effect; inconclusive means small, poorly fitted or top-dose-only effect, or another doubt; inactive means no such curve, though single readings can be large or run the other way. Potencies of inconclusive entries are left out as doubtful fits.
# Assay: Primary qHTS for delayed death inhibitors of the malarial parasite plastid, 48 hour incubation
# Conditions: P. falciparum luciferase growth in erythrocytes; series mostly up to 28.7 µM
# Summary of the method: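 Erythrocytes infected with P. falciparum carrying an integrated firefly luciferase reporter (2% hematocrit, 0.1% parasitemia final) were exposed to compounds in RPMI 1640 with 0.5% Albumax at 37 C, 5% CO2. Growth inhibition was scored as reduced luminescence.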
# Potency means the concentration at half of the fitted maximal effect; tags describe the fitted curve by direction and shape.
row,SMILES,Potency
1,Cc1ccccc1-n1nc2c(c1NC(=O)CCCl)CSC2,inactive
2,CC(C)CCNC(=O)NC(=O)CN1C(=O)NC2(CCCCC2)C1=O,"inconclusive [inhibitor, partial curve, poor fit]"
3,CCn1ncc(CNC(=O)CCSc2nc(-c3ccco3)cc(C(F)(F)F)n2)c1C,"inconclusive [inhibitor, single point]"
4,Cc1[nH]c2ccccc2c1C(=O)COC(=O)c1cccc(S(=O)(=O)N2CCCCC2)c1,"inconclusive [inhibitor, single point]"
5,Cc1ccc(O)c(NC(=O)c2noc(C(C)C)c2[N+](=O)[O-])c1,inactive
6,CC(C)c1nc2oc3c(N(C)CCO)ncnc3c2c2c1CCC2,"inconclusive [inhibitor, partial curve, poor fit]"
7,Cc1nc(C(=O)N/N=C/c2[nH]ncc2Br)cs1,active: 1.65 µM
8,O=C1c2ccccc2N2C(=O)c3ccccc3C2N1Cc1ccccc1 (configuration not stated),"inconclusive [inhibitor, partial curve]"
9,COC(=O)c1scc(C)c1S(=O)(=O)Nc1ccc(C)cc1,"inconclusive [inhibitor, single point]"
10,Cc1occc1-c1n[nH]c(=S)n1-c1ccccc1,inactive
11,CCCCN1C=CC(=C2C(=O)c3ccccc3C2=O)C=C1,inactive
12,Cc1ccc(-n2nnnc2SCC(=O)Nc2cccnc2Cl)cc1,inactive
13,Cc1cccc(OCC(=O)NCC(c2ccco2)N2CCCC2)c1 (configuration not stated),"inconclusive [inhibitor, single point]"
14,O=C(COC(=O)c1ccccc1O)NNC(=O)c1ccc(Br)cc1,"inconclusive [inhibitor, single point]"
15,COc1cc(N2CCOCC2)ccc1/C=C1\C(=O)NC(=O)N(C2CCCCC2)C1=O,"inconclusive [inhibitor, single point]"
16,COc1ccc(OC)c(CN2C(=O)c3ccccc3C2C(=O)NCC2CCCO2)c1 (configuration not stated),"inconclusive [inhibitor, single point]"
17,CC(=O)Nc1cccc(NC(=O)CSc2nccn2Cc2ccc(F)cc2)c1,"inconclusive [inhibitor, single point]"
18,COc1ccc(C)cc1N(C(=O)c1ccc(C#N)cc1)C1=NC(C)(C)CS1,inactive
19,O=C(CN(Cc1ccccc1)S(=O)(=O)c1ccc(F)cc1)NCCC1=CCCCC1,"inconclusive [inhibitor, partial curve]"
20,Cc1nc(NC(=O)c2ccccc2)sc1-c1csc(Nc2ccc(C(=O)O)cc2)n1,inactive
21,CCCC(=O)Nc1c(C(=O)OCC)[nH]c2ccccc12,inactive
22,Cc1ccccc1OCCC(=O)N1CCN(S(=O)(=O)c2ccc(F)cc2)CC1,"inconclusive [inhibitor, partial curve]"
23,COC(=O)C1=C(c2ccc(F)cc2OCc2ccccc2)C[C@@H]2CC[C@H]1N2C(=O)NCCCOC(C)C,active: 9.28 µM
24,Cc1ccc(/C=C/C(=O)c2ccc(O)cc2)cc1,inactive

row,SMILES,Potency
1,COc1ccc(-c2csc(NC(=O)CSCc3c(C)noc3C)n2)c(OC)c1,"inconclusive [inhibitor, partial curve]"
2,CC1(C)CC2CC(C)(CN2S(=O)(=O)c2cccc(C(N)=O)c2)C1 (configuration not stated),"inconclusive [inhibitor, single point]"
3,Cc1nn(C)c(C)c1/C=C/C(=O)c1ccc(Cl)cc1Cl,"inconclusive [inhibitor, partial curve, poor fit]"
4,CCn1c(COc2ccc(=O)n(-c3ccccc3)n2)nnc1SC,inactive
5,CC[N+](C)(C)CC/C=C1/c2ccccc2Sc2ccc(Cl)cc21,active: 3.7 µM
6,Cc1ccc(SCCSc2nc(C)cc(=O)[nH]2)cc1,inactive
7,CCOc1ccccc1NC(=O)CCc1c(C)nn(-c2ccc(N3CCCCC3)nn2)c1C,"inconclusive [inhibitor, partial curve]"
8,O=C(CSC(=S)N1CCCC1)NCC(=O)Nc1ccccc1Br,"inconclusive [inhibitor, single point]"
9,CC(=O)Nc1ccc(-c2csc(NC(=O)Cc3ccccc3F)n2)cc1,inactive
10,CN(C)CCNC(=O)Cn1ccc2cc(S(=O)(=O)N3CCCCCC3)ccc21,"inconclusive [inhibitor, single point]"
11,O=C(COc1c(Br)cc(Br)cc1Br)N/N=C/c1ccco1,inactive
12,COc1ccc(-n2c(Cc3cccn3C)nnc2SCC(=O)N2CCOCC2)cc1,inactive
13,COc1ccc(Br)cc1CN1CCCCCC1,"inconclusive [inhibitor, full curve, poor fit]"
14,CC1CCc2[nH]c3ccc(C(=O)N(C)CC(=O)Nc4ccccc4Cl)cc3c2C1 (configuration not stated),"inconclusive [inhibitor, partial curve, poor fit]"
15,Cc1noc(C)c1S(=O)(=O)N1CCCC(C(=O)c2cccc(OC(C)C)c2)C1 (configuration not stated),"inconclusive [inhibitor, single point]"
16,O=C(Nc1ccc(Cl)c(S(=O)(=O)N2CCCCC2)c1)c1cccnc1,active: 11.7 µM
17,CC12C(=O)N(Cc3ccco3)C(=O)C1C1c3ccccc3C2c2ccccc21 (configuration not stated),"inconclusive [inhibitor, partial curve]"
18,CCOc1ncccc1C(=O)N1CCN(C(c2ccccc2)c2ccccc2)CC1,"inconclusive [inhibitor, partial curve]"
19,Cc1ccc(S(=O)(=O)N/N=C/c2ccc(O)cc2O)cc1[N+](=O)[O-],inactive
20,O=C(Oc1ccc(Br)cc1C(=S)N1CCCCC1)c1cc([N+](=O)[O-])cc([N+](=O)[O-])c1,"inconclusive [inhibitor, single point]"
21,COCCNC(=O)C(c1ccc(F)cc1)N(C(=O)CCC(=O)Nc1ccccn1)c1cccc(C)c1 (configuration not stated),inactive
22,Nn1c(SCC(=O)Nc2ccc3c(c2)OCCO3)nncc1=O,inactive
23,Cc1cc(Cn2nc(-c3ccccc3)cc2C(=O)NCC2CC2)on1,"inconclusive [inhibitor, single point]"
